{"source": "PubChem BioAssay AID1671188", "about": "(National Center for Advancing Translational Sciences (NCATS), 2021)", "note": "In all, about 100,000 compounds went through this assay and about 250 (0.25%) were called active. Inconclusive means that the source gave no clear call. Such entries were picked first, then a sample of the others. The call rests on the fitted dose curve; in most records, active means well fitted inhibition curve with a large enough effect; inconclusive means small, poorly fitted or top-dose-only effect; inactive means flat fitted curve, though single readings scatter. Potencies of inconclusive entries are left out as doubtful fits. Potency means the concentration at half of the fitted maximal effect; tags describe the fitted curve by direction and shape."}
{"target": "Alanine aminotransferase 2 (Homo sapiens) (UniProt Q8TD30)", "sequence (Q8TD30 whole entry, looked up)": "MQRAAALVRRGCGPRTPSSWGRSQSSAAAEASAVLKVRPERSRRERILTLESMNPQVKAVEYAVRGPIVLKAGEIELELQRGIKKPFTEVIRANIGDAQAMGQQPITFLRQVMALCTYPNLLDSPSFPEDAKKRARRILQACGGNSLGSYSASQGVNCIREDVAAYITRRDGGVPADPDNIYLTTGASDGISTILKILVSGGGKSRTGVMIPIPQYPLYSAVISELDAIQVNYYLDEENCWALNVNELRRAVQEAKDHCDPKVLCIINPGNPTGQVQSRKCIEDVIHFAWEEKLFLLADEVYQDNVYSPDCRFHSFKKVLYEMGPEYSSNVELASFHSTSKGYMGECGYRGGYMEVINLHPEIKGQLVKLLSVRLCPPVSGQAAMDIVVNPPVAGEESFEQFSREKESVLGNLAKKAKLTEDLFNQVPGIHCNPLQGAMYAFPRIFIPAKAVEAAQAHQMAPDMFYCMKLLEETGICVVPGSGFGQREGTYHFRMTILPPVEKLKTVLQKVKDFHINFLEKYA", "assay": "Primary qHTS assay for inhibitors of Glutamate pyruvate transaminase 2 (GPT2); further: nearly all actives have a fitted effect of over 60% in size", "conditions": "Recombinant GPT2, coupled pyruvate oxidase/HRP Amplex Red fluorescence; series mostly up to 57.7 µM", "procedure,_shortened": "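Recombinant GPT2 (10ng/uL) with 250uM a-KG and 2mM L-alanine, 30 min at room temperature, in HEPES pH 7.5 buffer. Pyruvate detected by pyruvate oxidase/HRP/Amplex Red fluorescence after 30 min in the dark; AOA (50uM) as positive control.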"}
{"smiles": "COc1ccc(C(=O)NC(C(=O)NCC(C)C)C2CCN(C(=O)c3ccccc3F)CC2)cc1", "note": "(stereo unspecified)", "Potency": "inconclusive [inhibitor, single point]"}
{"smiles": "NC1(C(=O)N2CCOC(CC(c3ccccc3)c3ccccc3)C2)CC1", "note": "(stereo unspecified)", "Potency": "inconclusive [inhibitor, partial curve]"}
{"smiles": "COc1ccc(CC(=O)NC2CCN(c3cc(-c4ccc(Cl)cc4)[nH]n3)C2)cc1", "note": "(stereo unspecified)", "Potency": "inconclusive [inhibitor, partial curve]"}
{"smiles": "COc1ccc(CNC(=O)CC[C@]23CC[C@](C)(O)C[C@H]2C(C)(C)C[C@@H]3NC(=O)c2cccc(F)c2)cc1", "Potency": "inconclusive [inhibitor, partial curve, poor fit]"}
{"smiles": "Cc1nonc1OCCNC(=O)c1ccc2nc(Cc3ccccc3F)oc2c1", "Potency": "inconclusive [inhibitor, single point]"}
{"smiles": "CN1CCN(C(=O)N2CCCCC2)CC12CCC(=O)N(CC(=O)O)CC2", "note": "(stereo unspecified)", "Potency": "inactive"}
{"smiles": "O=c1n(-c2ccc(C(F)(F)F)cc2)nc2n1CCN(CC1CCCCC1)C2", "Potency": "inconclusive [inhibitor, single point]"}
{"smiles": "O=C(CCc1ccccc1)N1CCCN(c2cc(-c3ccccc3)[nH]n2)CC1", "Potency": "inconclusive [inhibitor, single point]"}
{"smiles": "Cc1cc(C(=O)N2C[C@@H](C)[C@@](C)(O)C2)cc(S(N)(=O)=O)c1C", "Potency": "inconclusive [inhibitor, single point]"}
{"smiles": "COc1ccc(-c2noc([C@@H]3CCCN3C(=O)c3ccc(F)cc3Cl)n2)cc1OC", "Potency": "inconclusive [inhibitor, single point]"}
{"smiles": "C=CC1(C)CC(=O)C2(O)C(C)(O1)C(OC(C)=O)C(O)C1C(C)(C)CCC(O)C12C", "note": "(stereo unspecified)", "Potency": "inconclusive [inhibitor, single point]"}
{"smiles": "COc1ccccc1-n1cc(CNC(=O)C(N)c2c(C)n[nH]c2C)cn1", "note": "(stereo unspecified)", "Potency": "inconclusive [inhibitor, single point]"}
{"smiles": "Cc1ccnn1CCC(=O)N1CCOC(Cc2ccc(F)cc2)C1", "note": "(stereo unspecified)", "Potency": "inconclusive [inhibitor, partial curve, poor fit]"}
{"smiles": "Nc1ncnc2c1c(-c1ccc(Oc3ccccc3)cc1)cn2C1CCCC1", "Potency": "inconclusive [inhibitor, partial curve, poor fit]"}
{"smiles": "COc1cccc(N2CCN(C(=O)CCn3ccn4nc5c(c4c3=O)CCCC5)CC2)c1", "Potency": "inconclusive [inhibitor, single point]"}
{"smiles": "Clc1cccc(Nc2cc3c(cn2)CN(Cc2cccnc2)CCN3)c1", "Potency": "inconclusive [inhibitor, single point]"}
{"smiles": "CC(C)CCN1CC(Oc2ccc3c(c2)OCO3)C1", "Potency": "inconclusive [inhibitor, partial curve, poor fit]"}
{"smiles": "CCc1ccc(N2CC(c3noc(-c4cc(OC)c(OC)c(OC)c4)n3)CC2=O)cc1", "note": "(stereo unspecified)", "Potency": "inactive"}
{"smiles": "O=C(C1CCCN1C(=O)c1ccc(F)cc1)N1CCC(c2nc3ccncc3[nH]2)CC1", "note": "(stereo unspecified)", "Potency": "inconclusive [inhibitor, single point]"}
{"smiles": "COC(=O)c1ccccc1Nc1nc(-c2ccccc2)no1", "Potency": "inconclusive [inhibitor, partial curve, poor fit]"}
{"smiles": "COc1ccc(C(C(=O)O)N2CCN(C(=O)c3ccco3)CC2)c(OC)n1", "note": "(stereo unspecified)", "Potency": "inconclusive [inhibitor, full curve, poor fit]"}
{"smiles": "O=C(NCc1ccccc1)C1CCC(=O)N1C1CCN(C(=O)c2ccc(Cl)cc2)CC1", "note": "(stereo unspecified)", "Potency": "inactive"}
{"smiles": "O=C(c1ccccn1)N1CCN(Cc2ccc(=O)n(CC3CC3)c2)CC1", "Potency": "inconclusive [inhibitor, full curve, poor fit]"}
{"smiles": "COc1ccc(S(=O)(=O)NC[C@@H]2C=C(C)[C@H](CC(=O)N3CCN(c4ccccn4)CC3)C[C@H]2C(C)C)cc1", "Potency": "inactive"}
{"smiles": "O=C1NC2(CCN(Cc3ccsc3)CC2)Oc2ccccc21", "Potency": "inconclusive [inhibitor, partial curve]"}
{"smiles": "COc1ccccc1C(=O)N1CCc2cn(C)c3cccc(c23)C1", "Potency": "inconclusive [inhibitor, single point]"}
{"smiles": "O=C(CN1CCCCCC1=O)NC1CCCc2nc(-c3cccnc3)ncc21", "note": "(stereo unspecified)", "Potency": "inconclusive [inhibitor, single point]"}
{"smiles": "C1=C(c2cc(-c3cccc4cn[nH]c34)cn3cncc23)CCOC1", "Potency": "inactive"}
{"smiles": "CC(=O)N1CCCC(C(=O)N2CCC(c3nc4ncccc4[nH]3)C2)C1", "note": "(stereo unspecified)", "Potency": "inactive"}
{"smiles": "Cc1ccc(-c2cc(N3CCCN(C(=O)c4ccc(N(C)C)cc4)CC3)n[nH]2)cc1C", "Potency": "inconclusive [inhibitor, single point]"}
{"smiles": "CC(C)c1nnc(NC(=O)C2CC(=O)N(c3n[nH]c4cccc(F)c34)C2)s1", "note": "(stereo unspecified)", "Potency": "inconclusive [inhibitor, single point]"}
{"smiles": "COCCCNc1cc(-c2cccs2)nc2c(C)noc12", "Potency": "inconclusive [inhibitor, full curve, poor fit]"}
{"smiles": "O=C1O[C@@H]2CN(C3CCCC3)C[C@@H]2N1CCc1cccc(Cl)c1", "Potency": "inconclusive [inhibitor, single point]"}
{"smiles": "CC(C)CN1C(=O)c2cccn2CC1C(=O)N1CCN(c2ncccn2)CC1", "note": "(stereo unspecified)", "Potency": "inactive"}
{"smiles": "Cc1ccc(NC(=O)c2cn3cc(-c4ccc(C)cc4)sc3n2)cc1", "Potency": "inactive"}
{"smiles": "Cn1cc(-c2ccc3c(n2)CN(CCOc2ccccc2)C(=O)CO3)cn1", "Potency": "inconclusive [inhibitor, single point]"}
{"smiles": "CCN1CCN(C(=O)c2cn3cc(-c4ccccc4)sc3n2)CC1", "Potency": "inactive"}
{"smiles": "Cc1cccc(N(C)C(=O)Cn2c(-c3cccc(Cl)c3)nc(C)c(CCO)c2=O)c1", "Potency": "inactive"}
{"smiles": "O=C(NO)c1ccccc1", "Potency": "inconclusive [inhibitor, partial curve, poor fit]"}
{"smiles": "CN1CCN(Cc2ccc(Nc3cnc4ccc(N5CCOCC5)nn34)cc2)CC1", "Potency": "inconclusive [inhibitor, partial curve, poor fit]"}
{"smiles": "COc1cccc(NC(=O)c2cnc(-c3ccc(C)cc3)nc2-c2ccncc2)c1", "Potency": "inconclusive [inhibitor, single point]"}
